Consider 167 variants from the RNAGym collection of RNA variant scans (doi:10.1093/nar/gkz1192).

B1: CPEB3 Ribozyme (parent)
chain: UAACAGGGGGCCACAGCAGAAGCGUUCACGUCGCAGCCCCUGUCAGAUUCUGGUGAAUCUGCGAAUUCUGCUGUAUAUCUC

Read counts are not given, so values of variants with three or more changes are uncertain.

This data set covers variants of B1. Briefly: self-cleavage, relative activity (ratio to wild type); higher = more cleavage; in vitro, sequencing. In outline:
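Libraries of CPEB3 self-cleaving ribozyme mutants came from rounds of error-prone PCR and carried barcodes, which DNA sequencing matched to variants. In vitro transcription used T7 RNA polymerase at 37°C for 5 hours, with a further 15 min in DNase I before EDTA stopped the reaction; the ribozymes cleaved during both steps. The RNA was reverse transcribed with template switching and sequenced on Illumina. Relative activity is the cleaved/total read fraction of a variant divided by that of the unmutated ribozyme, averaged over three batches with at least 5 reads.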
Take A20G U25C U41C U51C U54A A77G: the self-cleavage worked out at 0.04. Take A20G C32U U74C: the self-cleavage was determined as 0.37. Consider A20G U43A A57G A75G, for which the self-cleavage turned out to be 0.52. A20G U48C U78C C81U: the self-cleavage was 0.2. Consider A20G U41A A47G A64G U80G, for which the self-cleavage turned out to be 0.24. Take A20U A21G U26A U78C: the self-cleavage worked out at 0.05. On to A20G U31G U41A U51A U69A, for which the self-cleavage stood at 0.16. The same measure for A20G U54A A77G U80A: 0.96; for A20G U26A U49C U54C: 0.21; for A20U A21G U31C U43C U48C: 0.07. Consider A20G U25C A35G U58C U66C A77C U80C, for which the self-cleavage turned out to be 0.15. In the case of A20G U49C U54C U60A, the self-cleavage was found to be 0.01.

In the case of A20G U51A U60C, the self-cleavage stood at 0.16.

Regarding A20G G61A U72A U80C, the self-cleavage was 0.46. Consider A20U A21G C39U U51G G55A, for which the self-cleavage was 0.13. For the variant A20G C40A A56U U58C, the self-cleavage was found to be 0.11.

Consider A20G U41C U69C, for which the self-cleavage was 0.47. Turning to A20G U43A G55U, the self-cleavage was 0.97. As for A20G U25A A35G A56G, the self-cleavage came out at 0.15. Consider A20G U43C U72C, for which the self-cleavage was determined as 0.36.

In the case of A20G U26A A35U U49A, the self-cleavage turned out to be 0.28. With A20G G53C U67C U76A U80C, the self-cleavage stood at 1.17. Take A20G C59A A77U: the self-cleavage turned out to be 0.23. In the case of A20G U41C U43C C59A U69C A77U it was 0.1; in that of A20G U43A U78C U80G, 0.64. With A20G U31C U49C, the self-cleavage stood at 0.34. A20G U25C U41A A45U: the self-cleavage was determined as 0.12.

Consider A20G U26A U60A, for which the self-cleavage came to 0.28.

With A20G U54A U60C U78C, the self-cleavage worked out at 0.41. As to A20G U31C C37G A57G, the self-cleavage came to 0.12.

Regarding A20G G36U C40U U54C, the self-cleavage is 0.11. For A20G G46U U49C A77G U78A, the self-cleavage amounted to 0.15. The same measure for A20G U43A U66C: 0.54; for A20G U31A G46A: 0.45; for A20G U60G G63C: 0.24. In the case of A20G G33A A45G U67A it was 0.37; in that of A20G U51A A56G U76C, 0.73; in that of A20G G24A U25C U48C U72C, 0.26. Consider A20G U43A U72C U78C, for which the self-cleavage worked out at 0.76. In the case of A20G C40U U69C U80C it was 0.29; in that of A20G U49A A64G A75U U80C, 0.43.

Consider A20G U60A A77G, for which the self-cleavage came out at 0.42. In the case of A20G G24A A35G U74C, the self-cleavage worked out at 0.53. The same measure for A20G G36C U66C: 0.36; for A20G U51G U78C: 0.89. Turning to A20G U43C G46A U67C, the self-cleavage is 0.11. As to A20G G22U U51C G52U U54C, the self-cleavage was found to be 0.15.

For A20G U41A A47G A56G, the self-cleavage is 0.29. In the case of A20G U25C A28G, the self-cleavage came out at 0.36. In the case of A20G G33A A64G it was 0.31. The same measure for A20G U25C C32A C39G U51A U78C: 0.05. For the variant A20G U41A U78C, the self-cleavage was 0.14.

Turning to A20G U43C U51G A56G U60A U69C U74C, the self-cleavage amounted to 0.21. In the case of A20G U54A A56G, the self-cleavage is 0.38. In the case of A20G U72C U78C, the self-cleavage was found to be 0.82. For the variant A20G U41A U60C, the self-cleavage was 0.61. With A20G U41C U49A A56G, the self-cleavage is 0.49.

Turning to A20G C40U U67C U69C A75U U80G, the self-cleavage came to 0.1.

Consider A20G U58C U72A, for which the self-cleavage stood at 0.14. Take A20G C38U U67C: the self-cleavage came out at 0.24. In the case of A20G C40U U69C it was 0.41; in that of A20G U26A U48C U54C, 0.15; in that of A20G U41C U72C, 0.78. In the case of A20G U43C U72A U80C it was 0.83; in that of A20G U25G U49C A57G U58A U69A C71A, 0.36; in that of A20G U26A A35U U54C, 0.11. The same measure for A20G U26C A64U: 0.11; for A20G G24A A28G U49C U66G: 0.15. With A20G G24C U60C U67C, the self-cleavage amounted to 0.08. Regarding A20G U25C G33A C34A U54A U78C, the self-cleavage was 0.09. With A20G G33A U41G A65U, the self-cleavage was 0.27.

With A20G U25C U26G A56G U76A, the self-cleavage worked out at 0.08. Regarding A20G G33U U41C, the self-cleavage was 0.24. Take A20G U49C U60C U78C: the self-cleavage was found to be 0.3. For A20G C34G A35G A47G, the self-cleavage is 0.37. A20G G33U U43C U49C G70U U72A: the self-cleavage is 0.1. As to A20G C62A U72C G73A, the self-cleavage came to 0.13. For the variant A20G G36A G55A G63A, the self-cleavage turned out to be 0.13.

For A20G G36U U51C U80A, the self-cleavage was found to be 0.1. In the case of A20G C39A U51C it was 0.31; in that of A20G U60A A64G U80A, 0.36; in that of A20G U25C U26G G63A, 0.42. Take A20G U25C C40U A45G U69G: the self-cleavage is 0.4. As for A20G U54G A64G A77U, the self-cleavage was found to be 0.39. For A20G U58C U80A, the self-cleavage turned out to be 0.35. The same measure for A20G G33A U72C: 0.32; for A20G U31C U60A A64U: 0.12; for A20G U54A U67C U72A: 0.56. Turning to A20G U25A U49C U72G, the self-cleavage was found to be 0.06. As for A20G C44U A57G, the self-cleavage is 0.11. A20G U48C U58C: the self-cleavage was 0.15. The same measure for A20G U25C A28G A57G: 0.23; for A20G C32U U54G U69A: 0.05. For A20G C40A U51C U69C, the self-cleavage amounted to 0.12. For the variant A20G U25C G55C A77G U80C, the self-cleavage came out at 0.28. Consider A20G U25C U43C, for which the self-cleavage is 0.14. Turning to A20G U60A U80C, the self-cleavage worked out at 0.4.

As to A20G G53U U67C, the self-cleavage is 1.17.

With A20G C39U U41A A75G, the self-cleavage amounted to 0.37. With A20G U26C U51A G63U U72A, the self-cleavage was 0.15. As for A20G C38U U41C A75U, the self-cleavage amounted to 0.52. As to A20G U26C U43C U48C A56U U80C, the self-cleavage is 0.1. As for A20G G36A U69C U72C, the self-cleavage is 0.06.

Consider A20U A21G U43C, for which the self-cleavage amounted to 0.39. As for A20G U26C C40U A56G, the self-cleavage is 0.11. With A20G U58A U67C, the self-cleavage was found to be 0.45. In the case of A20G C39A U54A it was 0.34; in that of A20G U48C A56U, 0.2; in that of A20G U25C A57G U72C, 0.05. With A20G U49C U60A U74C, the self-cleavage was determined as 0.07.

A20G U31G C68G U80C: the self-cleavage stood at 0.17. For A20G U48C G52A A56G, the self-cleavage was determined as 0.23.

On to A20G U25C U26C A28G, for which the self-cleavage was found to be 0.46.

Turning to A20G U54C U58A A64G U74C U80C, the self-cleavage is 0.09.

For A20G U51G U60C G61A, the self-cleavage is 0.32. As for A20G U26A A35U A64U, the self-cleavage turned out to be 0.31. With A20G G55U U69C A75U U80C, the self-cleavage amounted to 0.23. For A20G U51A G63A, the self-cleavage stood at 0.85.

Consider A20G U25C U31C C68U U80A, for which the self-cleavage is 0.08.

Take A20G U60C A65C A75G: the self-cleavage worked out at 0.24. As for A20G U49C U54G, the self-cleavage came out at 0.12. As for A20G U49C U54C, the self-cleavage worked out at 0.43.

Consider A20G U26C U72C, for which the self-cleavage came out at 0.2. A20G U26A C39G U51A U74A U78C: the self-cleavage was 0.42.

Take A20G U78C U80C: the self-cleavage was found to be 0.63. As for A20G G42A A57G, the self-cleavage turned out to be 0.21. Turning to A20G U26A U51C C68U U80C, the self-cleavage was 0.4. In the case of A20G U25C A56G, the self-cleavage is 0.19.

Regarding A20G G22C U69A G73C, the self-cleavage was 0.23. The same measure for A20G U49C U58C U69C: 0.14; for A20G U25C U41A U69C: 0.07; for A20G U26G A56U A57G: 0.1. Turning to A20G U26G U54C U78C, the self-cleavage is 0.27. In the case of A20G U69A U78A, the self-cleavage came out at 0.39. Consider A20G U43C A57G, for which the self-cleavage was found to be 0.17. The same measure for A20G U25C U26C U66C U67C U80C: 0.45.

For A20G U54C A57G U72C, the self-cleavage was found to be 0.5. With A20G U67A C68G, the self-cleavage turned out to be 0.12. As to A20G G30A U43C A56U U67C U69C A77U, the self-cleavage turned out to be 0.15. For the variant A20G U49A A56U A64G A75U, the self-cleavage was 0.94. Turning to A20G U43C U80C, the self-cleavage is 0.56. Take A20G G22A A57G: the self-cleavage was determined as 0.14. In the case of A20G U43C G55A U69A it was 0.04; in that of A20G U43A U48C A56G A65G, 0.13.

As for A20G U43C A64G U69G, the self-cleavage came to 0.21. In the case of A20G U41C U43C U60A U74C it was 0.3. A20G U25C A45U G63U: the self-cleavage worked out at 0.06. Take A20G C38A U58C: the self-cleavage worked out at 0.26.

For A20G U41C U80A, the self-cleavage is 1.07. In the case of A20G U31C A47G G61A U78C it was 0.1. For A20G U26C A45C U72A, the self-cleavage was 0.16.

Regarding A20G U25A U26C A64G U74C, the self-cleavage was 0.2. A20U A21G G33U A45U U78C: the self-cleavage turned out to be 0.05. In the case of A20G U25C U72C, the self-cleavage stood at 0.4. On to A20G U26C U54A, for which the self-cleavage was found to be 0.4.

Take A20G U31C U80C: the self-cleavage was 0.66. Turning to A20G U48G U72C C79U, the self-cleavage worked out at 0.14. Regarding A20G U25C U43A U49C A56G, the self-cleavage is 0.29. The same measure for A20G C39U A57U U74C: 0.16. In the case of A20G U60A U76C U78A it was 0.43. With A20G U25C U41A A64G, the self-cleavage came out at 0.38. Take A20G U41C A45G U60C: the self-cleavage is 0.93. For A20G U26C U51C G63A A64G, the self-cleavage is 0.12. In the case of A20G G22U U31C U78C it was 0.11; in that of A20G C38G U51C U74C, 0.42; in that of A20G U26G U31C A47G U49G, 0.51.

Take A20G U26C U43G: the self-cleavage was found to be 0.16.
